{
  "source": "paper PMC4336329",
  "about": "(PLoS ONE, 2015)",
  "note": "Among all 310,000 compounds or so, about 14,000 (4.5%) showed an effect of 50% or more. The effect is printed as a negative number. This is one part of the list.",
  "data": [
    {"target": "human ether-à-go-go-related gene (hERG) potassium channel (human, UniProt Q12809)", "sequence (Q12809 whole entry, looked up)": "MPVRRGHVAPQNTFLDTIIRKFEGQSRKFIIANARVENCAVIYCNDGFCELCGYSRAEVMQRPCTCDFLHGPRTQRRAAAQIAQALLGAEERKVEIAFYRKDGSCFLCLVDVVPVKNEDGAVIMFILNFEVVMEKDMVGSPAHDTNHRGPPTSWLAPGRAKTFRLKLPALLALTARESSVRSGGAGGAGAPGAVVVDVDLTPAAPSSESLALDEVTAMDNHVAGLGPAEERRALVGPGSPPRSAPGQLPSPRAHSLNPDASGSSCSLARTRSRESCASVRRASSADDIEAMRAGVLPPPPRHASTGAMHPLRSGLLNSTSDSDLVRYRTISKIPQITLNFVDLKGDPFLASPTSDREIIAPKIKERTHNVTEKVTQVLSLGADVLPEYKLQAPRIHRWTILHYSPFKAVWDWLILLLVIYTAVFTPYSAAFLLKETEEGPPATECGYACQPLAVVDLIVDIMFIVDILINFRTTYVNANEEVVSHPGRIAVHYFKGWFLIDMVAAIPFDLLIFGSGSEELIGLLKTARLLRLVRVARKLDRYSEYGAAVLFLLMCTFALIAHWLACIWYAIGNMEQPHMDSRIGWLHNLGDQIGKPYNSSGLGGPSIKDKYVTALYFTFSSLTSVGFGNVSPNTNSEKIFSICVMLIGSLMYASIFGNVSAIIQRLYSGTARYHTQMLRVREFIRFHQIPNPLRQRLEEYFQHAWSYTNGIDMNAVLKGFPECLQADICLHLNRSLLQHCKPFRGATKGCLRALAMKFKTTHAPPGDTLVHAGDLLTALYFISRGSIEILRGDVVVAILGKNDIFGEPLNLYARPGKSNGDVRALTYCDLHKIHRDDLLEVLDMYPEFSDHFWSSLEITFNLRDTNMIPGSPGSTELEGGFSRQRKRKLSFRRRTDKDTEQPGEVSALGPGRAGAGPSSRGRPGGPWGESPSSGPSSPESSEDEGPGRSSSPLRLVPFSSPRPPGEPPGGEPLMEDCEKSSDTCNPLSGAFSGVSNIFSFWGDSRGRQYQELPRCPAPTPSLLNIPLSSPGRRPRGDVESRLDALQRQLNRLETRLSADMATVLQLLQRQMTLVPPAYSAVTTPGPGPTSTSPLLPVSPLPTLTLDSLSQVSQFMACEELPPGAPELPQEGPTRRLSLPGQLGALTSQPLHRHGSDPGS", "assay": "primary screen, population patch clamp on CHO cells stably expressing hERG", "units": {"hERG current change (%, negative = inhibition) at 10uM": "%"}, "values": [
      {"compound": "CCOC(=O)c1oc2c(CN3CCCCC3C)c(O)ccc2c(=O)c1-c1ccc(OC)c(OC)c1", "note": "(centres unmarked);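 further: peak tail current of the secondary pulse compared with the same well before compound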", "hERG current change (%, negative = inhibition) at 10uM": -21.6},
      {"compound": "O=c1[nH]c2cc3c(cc2cc1C(c1nnnn1C1CCCC1)N1CCSCC1)OCCO3", "note": "(centres unmarked)", "hERG current change (%, negative = inhibition) at 10uM": 13.6},
      {"compound": "CC(C)=CCc1c(O)cc2oc3c(CC=C(C)C)c(O)c(O)c(CC=C(C)C)c3c(=O)c2c1O", "hERG current change (%, negative = inhibition) at 10uM": 8.6},
      {"compound": "Cc1cccc(NC(=O)CSc2nc3ccccc3nc2N2CC(C)OC(C)C2)c1", "note": "(centres unmarked)", "hERG current change (%, negative = inhibition) at 10uM": -10.2},
      {"compound": "Cc1cc(NC(=O)CSc2nnc(Nc3ccccc3)s2)no1", "hERG current change (%, negative = inhibition) at 10uM": 3.33},
      {"compound": "CC1CCCC(C(=O)OCc2ccccc2)N1.Cl", "note": "(centres unmarked)", "hERG current change (%, negative = inhibition) at 10uM": 4.56},
      {"compound": "COc1cc(CN2CCNC(=O)C2CC(=O)N(C)CCCN2CCOCC2)cc(OC)c1", "note": "(centres unmarked)", "hERG current change (%, negative = inhibition) at 10uM": 9.39},
      {"compound": "CC(c1nnc(SCC(=O)Nc2cccnc2Cl)n1Cc1ccccc1)N(C)C", "note": "(centres unmarked)", "hERG current change (%, negative = inhibition) at 10uM": 11},
      {"compound": "Nc1nc(SCC(=O)Nc2ccc([N+](=O)[O-])cc2Br)n[nH]1", "hERG current change (%, negative = inhibition) at 10uM": 3.65},
      {"compound": "Cc1ccc(-n2c(C)c(C)c3c(NCCN(C)C)ncnc32)cc1", "hERG current change (%, negative = inhibition) at 10uM": -36.3},
      {"compound": "COc1cc(C2Nc3ccccc3C(=O)N2c2ccccc2)c(Br)cc1OCC(=O)O", "note": "(centres unmarked)", "hERG current change (%, negative = inhibition) at 10uM": 0.108},
      {"compound": "CN(CC(=O)Nc1ccccc1-c1ccccc1)C1CCCCC1.[O-][Cl+3]([O-])([O-])O", "hERG current change (%, negative = inhibition) at 10uM": -9.45},
      {"compound": "CSCCC(NS(=O)(=O)/C=C/c1ccccc1)C(=O)O", "note": "(centres unmarked)", "hERG current change (%, negative = inhibition) at 10uM": 9.96},
      {"compound": "CCOC(=O)Cc1csc(NC(=O)c2c(O)c3ccccc3n(CCC(C)C)c2=O)n1", "hERG current change (%, negative = inhibition) at 10uM": 19},
      {"compound": "COc1ccc(S(=O)(=O)NC(CC(=O)NCC2CCCO2)c2ccco2)cc1", "note": "(centres unmarked)", "hERG current change (%, negative = inhibition) at 10uM": 8.5},
      {"compound": "COc1ccc(C(CCN(Cc2ccc(OC)c(OC)c2)C(C)=O)C(C)C)cc1", "note": "(centres unmarked)", "hERG current change (%, negative = inhibition) at 10uM": -52.3},
      {"compound": "CCc1nnc(NC(=O)C2CCCN(C(=O)c3ccc(Cl)cc3)C2)s1", "note": "(centres unmarked)", "hERG current change (%, negative = inhibition) at 10uM": 6.87},
      {"compound": "O=C(NCN1C(=O)C2C3C=CC(C3)C2C1=O)Nc1ccccc1O", "note": "(centres unmarked)", "hERG current change (%, negative = inhibition) at 10uM": 13.9},
      {"compound": "COc1ccc(-n2c(CNCCc3ccc(C)cc3)nc3ccccc3c2=O)cc1", "hERG current change (%, negative = inhibition) at 10uM": -32.8},
      {"compound": "CCOC(=O)c1c(C)[nH]c(C(=O)OCC(=O)N2CCN(S(=O)(=O)c3ccc(C)cc3C)CC2)c1C", "hERG current change (%, negative = inhibition) at 10uM": -1.48}
    ]}
  ]
}
